Data taken from PubChem BioAssay AID2546 (National Center for Advancing Translational Sciences (NCATS), 2010).
About 11,000 (3.5%) of roughly 310,000 compounds were called active. Inconclusive results, whose numbers are uncertain, are shown with a selection of clear calls. Calls follow the shape of the dose curve; as a rule, active = well fitted inhibition curve with a large enough effect; inconclusive = small, poorly fitted or top-dose-only effect, or effect the other way; inactive = flat fitted curve, though single readings scatter. Potencies of inconclusive entries are left out as doubtful fits.

Test: VP16 counterscreen qHTS for inhibitors of ROR gamma transcriptional activity;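 also: Gal4-VP16 expression switched on by copper sulfate through the metallothionein promoter; nearly all actives have a fitted effect of over 50% in size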
Details: Drosophila S2 Gal4-VP16 UAS-luciferase, luminescence, 20 h; activity, negative = inhibition: at 53.6 µM (top of the series)
% is scaled to controls: 0 for no effect and ±100 for the full control effect; potency is read from the fitted curve at half-maximal effect; tags tell the direction and shape of the fitted curve.

Row | Compound | Potency | activity, negative = inhibition
1 | OC(COc1c(F)cc(Br)cc1F)CN1CCN(c2ccc(F)cc2)CC1 (stereo not drawn) | inconclusive [inhibitor, single point] | –
2 | Cc1cccc(-n2c(-c3csc(C)c3C)n[nH]c2=S)c1 | active: 11.2 µM | –
3 | O=C1C2ON(c3ccc(Cl)cc3)C(c3ccco3)C2C(=O)N1c1ccccc1 (stereo not drawn) | inconclusive [inhibitor, single point] | –
4 | CC(NC(=O)[C@H](C)NC(=O)C1CC(=O)N(c2ccc3c(c2)OCO3)C1)c1ccccc1 (stereo partly drawn) | inconclusive [inhibitor, single point] | –
5 | O=C(NC(=S)Nc1ccc(Br)c(Cl)c1)C1CC1 | active: 7.94 µM | –
6 | O=C(CSc1ccc2c(c1)OCCO2)NC(=O)NC1CCCC1 | inconclusive [inhibitor, single point] | –
7 | CCCCCCCSc1nnc(-c2ccccc2N)c(=O)[nH]1 | inconclusive [inhibitor, single point] | –
8 | O=C(CNS(=O)(=O)c1ccc([N+](=O)[O-])cc1)N/N=C/c1ccc(O)cc1O | – | inactive: 5.24%
9 | NS(=O)(=O)c1ccc(NN=C2CCN(Cc3ccccc3)CC2)c([N+](=O)[O-])c1 | inconclusive [inhibitor, single point] | –
10 | COc1ccc2c3c(cccc13)C(=O)N(O)C2=O | inconclusive [inhibitor, partial curve, poor fit] | –
11 | CC(=O)c1ccc(Nc2cc(C)nc3c(C)cc(C)cc23)cc1 | inconclusive [inhibitor, single point] | –
12 | Cc1cc(C)c(N(Cc2ccccc2)S(=O)(=O)c2ccc(OCCNC(=O)c3cc4ccccc4o3)cc2)c(C(=O)NO)c1 | inconclusive [inhibitor, single point] | –
13 | O=C(c1ccc(Cn2c(=S)[nH]c3cc4c(cc3c2=O)OCO4)cc1)N1CCN(c2ccccc2)CC1 | active: 6.31 µM | –
14 | CCN(CC(=O)NCc1ccc(F)cc1)Cc1nc2cc(Cl)ccc2c(=O)[nH]1 | inconclusive [inhibitor, full curve, poor fit] | –
15 | CN(C)CCNC(=O)Nc1ccc(F)cc1F | – | inactive: -3.04%
16 | Cc1cc(NC(=O)c2cc3nc4c(c(C(F)(F)F)n3n2)CCc2ccccc2-4)no1 | inconclusive [inhibitor, single point] | –
17 | CCCOc1ccc(CSCCNC(=S)Nc2ccccc2)cc1 | inconclusive [inhibitor, single point] | –
18 | O=c1c(-c2cccs2)nc2cnc(N3CCNCC3)nc2n1Cc1cccs1 | active: 8.91 µM | –
